Structures are written as SMILES. Over roughly 110,000 compounds, “z-score” has its median near -0.1; the highest 2% begin near 2. This is one part of the list.

This assay concerns the target Metabotropic glutamate receptor 8 (Rattus norvegicus) (UniProt P70579). The experiment in a line: mGluR8 Gi/Go-coupled signaling modulation – cell-based, rat, thallium flux, HTS, primary screen (AID 488969). The following applies: HEK293 rat mGluR8, GIRK (G protein-gated inwardly rectifying potassium channel) thallium flux, FluoZin2; at 10 µM; stronger effect = higher value; submaximal glutamate (EC20) added with thallium.
UniProt P70579, sequence (P70579 whole entry, looked up): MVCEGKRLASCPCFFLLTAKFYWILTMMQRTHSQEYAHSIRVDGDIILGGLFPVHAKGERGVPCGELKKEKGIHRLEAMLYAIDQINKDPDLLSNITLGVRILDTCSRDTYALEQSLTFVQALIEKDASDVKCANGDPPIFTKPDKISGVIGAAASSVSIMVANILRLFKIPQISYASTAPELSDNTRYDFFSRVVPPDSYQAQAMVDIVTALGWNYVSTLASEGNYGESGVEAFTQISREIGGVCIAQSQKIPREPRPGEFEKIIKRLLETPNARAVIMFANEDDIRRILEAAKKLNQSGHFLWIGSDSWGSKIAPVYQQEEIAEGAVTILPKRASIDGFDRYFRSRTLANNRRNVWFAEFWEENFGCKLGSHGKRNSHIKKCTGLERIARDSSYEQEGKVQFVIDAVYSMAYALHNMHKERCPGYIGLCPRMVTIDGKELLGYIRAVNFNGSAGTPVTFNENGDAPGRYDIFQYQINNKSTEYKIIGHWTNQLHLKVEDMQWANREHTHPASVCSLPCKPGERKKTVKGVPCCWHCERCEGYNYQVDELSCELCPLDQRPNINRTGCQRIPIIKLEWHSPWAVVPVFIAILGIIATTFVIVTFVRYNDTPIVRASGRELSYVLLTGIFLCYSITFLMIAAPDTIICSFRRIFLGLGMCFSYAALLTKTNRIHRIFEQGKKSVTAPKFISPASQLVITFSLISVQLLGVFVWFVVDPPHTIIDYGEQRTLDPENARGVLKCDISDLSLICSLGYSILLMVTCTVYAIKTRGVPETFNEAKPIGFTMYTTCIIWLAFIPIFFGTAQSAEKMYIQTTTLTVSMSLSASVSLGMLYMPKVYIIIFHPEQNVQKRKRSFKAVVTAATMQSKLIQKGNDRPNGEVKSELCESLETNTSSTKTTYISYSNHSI
In turn, `O=C(N/N=C/c1cccc(C(F)(F)F)c1)C1CCN(c2ncc(C(F)(F)F)cc2Cl)CC1` showed a z-score of -0.0281. Under `Cc1ccc(C2=NC(C)(C)NC2=O)cc1` stands -0.119. The compound `Cc1ccc(N2C(=O)C3ON(c4ccccc4)C(c4ccncc4)C3C2=O)cc1` (centres undefined) registered a z-score of -0.103.

`C=CCn1c(SCC(=O)c2ccc(Cl)s2)nc2ccccc2c1=O` displayed a z-score of -0.205.

`CC(=O)Nc1cccc(-c2nnc3n2CC(C)S3)c1` (centres undefined) displayed a z-score of -0.767. `CC(C)CNC(=O)COC(=O)CCC(=O)c1cccs1` displayed a z-score of -0.168. As for `O=C(CSc1ncccn1)N/N=C/c1cccc([N+](=O)[O-])c1`, the figure is 1.35; as for `Cc1cccc(Nc2nnc(SCC(=O)NC3CCCc4ccccc43)s2)c1` (centres undefined), 0.0545; as for `Cc1nc(C)c(C(=O)C2=C(O)C(=O)N(CCN3CCOCC3)C2c2cccnc2)s1` (centres undefined), 0.383. Take `CCCCCCOC(=O)C(C#N)c1nc2ccccc2nc1N1CCN(C)CC1` (centres undefined): the z-score was found to be 2.73. As for `COc1ccc(OC)c(NC(=O)Cc2coc3ccc4ccccc4c23)c1`, the figure is 0.566; as for `CC(Oc1ccc(Cl)cc1)C(=O)OCC(=O)Nc1ncc(Cl)cc1Cl` (centres undefined), -0.547; as for `O=C(COc1ccccc1O)NNc1ccccc1`, -0.209.

As to `N/C(=N\OC(=O)c1ccco1)c1cccc(Br)c1`, the z-score was -0.427. `CC(C)Sc1nnc(CNC(=O)C23CC4CC(CC(C4)C2)C3)n1Cc1ccccc1` registered a z-score of 0.152. Consider `CCOC(=O)CSc1nc2ccc(C)cc2cc1C#N`, for which the z-score is -0.778. The compound `O=C(CSc1nnc(-c2cccnc2)s1)Nc1cccc(C(=O)O)c1` had a z-score of -0.0443. Compound `O=C1Cc2ccccc2Sc2c(OCCN3CCCCC3)cccc21` showed a z-score of -0.927. Under `Cc1ccc(C(c2nnnn2CS(=O)(=O)c2ccc(C)cc2)N2CCN(c3ncccn3)CC2)cc1` (centres undefined) stands -0.145; under `Cc1ccc(C)c(NC(=S)NC(NC(=O)OCc2ccccc2)C(Cl)(Cl)Cl)c1` (centres undefined), -0.108. `CCOc1ccc(Cn2nnc(C(=O)NCc3ccccc3)c2N)cc1` returned a z-score of -0.258. As to `Cc1ccc(CC(CC(=O)O)C(=O)NCc2ccccc2)cc1` (centres undefined), the z-score was determined as 0.117. With `Cc1[nH]n(-c2ccccc2)c(=O)c1/C=N/O`, the z-score was -0.187. As for `COc1ccccc1N(CC(=O)NCC1CCCO1)C(=O)CNS(=O)(=O)c1ccc(C)cc1` (centres undefined), the z-score was -0.0736. The compound `CCOC(=O)c1nnc2cc(-c3ccccc3)nn2c1C` had a z-score of -0.324. The compound `Cc1ccnc(NS(=O)(=O)c2ccc(NC(=O)C3CCCO3)cc2)n1` (centres undefined) gave a z-score of -0.306.

`CCOC(=O)C1=C(C)NC(SCC(=O)O)=C(C#N)C1c1ccco1` (centres undefined) came in with a z-score of -0.159.

As to `O=C(CN(Cc1cccs1)C(=O)CNS(=O)(=O)c1ccc(Cl)cc1)NCc1ccco1`, the z-score was -0.251. `COC(=O)C1CCN(C(=O)CN2C(=O)NC(CCc3ccccc3)C2=O)CC1` (centres undefined): the z-score was 0.0366. `CCn1c(O)c(N=NC(=O)c2cccc(S(=O)(=O)N3CCCCC3)c2)c2ccccc21` came in with a z-score of -0.282.

As for `Cc1cc(-c2[nH]nc3c2C(c2cccc(O)c2)C(C#N)=C(N)O3)c(C)s1` (centres undefined), the z-score is -0.239. As for `O=C(/C=C/c1ccc(F)cc1)NCc1ccco1`, the figure is -0.151; as for `COc1ccccc1N1CCN(S(=O)(=O)c2ccccc2F)CC1`, -0.52. Regarding `Nc1nc(SCC(=O)Nc2cc(-c3ccccc3)nn2-c2ccccc2)n[nH]1`, the z-score was 0.218.

`CC(C)NC1=C(Cl)C(=O)c2ccccc2C1=O` gave a z-score of -0.413. Compound `O=C(Nc1ccc([N+](=O)[O-])c(NC(=O)C2CCCO2)c1)C1CCCO1` (centres undefined) returned a z-score of -0.175. `Cn1c(CN2CCC(C(N)=O)CC2)c(C#N)c2ccccc21` gave a z-score of -0.956. As for `CCSc1nnc(-c2cccnc2)n1-c1ccc(Cl)c(C)c1`, the z-score is -0.094.

Compound `Cc1cc(C)nc(SCc2cc(=O)c(OC(=O)c3cc([N+](=O)[O-])ccc3Cl)co2)n1` returned a z-score of -0.614. Under `O=C(/C=C/c1ccco1)Nc1ccc(Oc2ccccc2)cc1` stands -0.169. Compound `Nc1ncnc2nc(SCCOc3ccc(Cl)cc3)[nH]c12` yielded a z-score of 1.42. For the compound `O=C(O)c1ccc(COc2ccc3c4c(c(=O)oc3c2)CCC4)o1`, the z-score turned out to be 0.0617.

In turn, `Cc1ccc(N(CCC(=O)O)S(=O)(=O)c2ccccc2)cc1` showed a z-score of 0.153. `CC1CCCCC1NC(=O)CN1C(=O)NC(Cc2ccccc2)(Cc2ccccc2)C1=O` (centres undefined) had a z-score of -0.2.

With `O=C1C2CCC(C(O)C2)N1Cc1ccccc1` (centres undefined), the z-score is -0.15.

In turn, `Cc1c(C(=O)c2cccc([N+](=O)[O-])c2)c2ccccn2c1CCC#N` returned a z-score of -0.451. In turn, `O=c1cc(-c2ccccc2)nc2nc(CCc3ccccc3)[nH]n12` returned a z-score of -1.32. `CCc1nnc(NC(=O)CSc2nnc(-c3ccccc3OC)n2-c2ccccc2)s1` returned a z-score of -0.755. In the case of `COc1ccc(-n2nnnc2-c2cnc3cc4c(cc3c2C)OCO4)cc1`, the z-score is -0.252.

`CC1CCCCN1Cc1ccc(N(C)C)cc1` (centres undefined) showed a z-score of -0.0979. As for `CS(=O)(=O)N(CC(=O)Nc1ccccc1C(=O)N1CCOCC1)c1ccccc1`, the figure is -0.176.

`CC(NC(=O)c1ccc(Cl)cc1)C(=O)NC1=NCCS1` (centres undefined): the z-score is -0.0564. `O=c1c2ccccc2sn1-c1cc(S(=O)(=O)N2CCOCC2)ccc1N1CCCC1` yielded a z-score of -0.388. Compound `Clc1ccc(N2COC3c4cccc5cccc(c45)C32)cc1` (centres undefined) had a z-score of -0.682. Compound `CCOC(=O)CC(=O)CSc1nc2c(cc1C#N)CCC2` yielded a z-score of 2.18. In turn, `CCOC(=O)c1cnn(-c2ccccc2)c1NC(=O)CCl` returned a z-score of 0.0652. Compound `O=C(CN1C(=O)/C(=C\c2ccc(C(F)(F)F)cc2)Sc2ccccc21)NCc1ccco1` gave a z-score of 0.00192.

Take `COc1cccc(C2CC(c3c(F)cccc3Cl)n3nc(N)nc3N2)c1` (centres undefined): the z-score amounted to 0.971. `O=C(/C=C/Nc1ccc([N+](=O)[O-])cc1Br)c1cccc2ccccc12` returned a z-score of 0.124.

As to `CC(C)CCNC(=O)C(c1ccncc1)N(Cc1cccs1)C(=O)Cn1nnc(-c2ccc(F)cc2)n1` (centres undefined), the z-score was -0.198. Under `O=C(N/N=C\c1ccc(-c2ccc([N+](=O)[O-])cc2)o1)c1ccc2c(c1)OCO2` stands -0.452. Compound `Cc1c(N=C2NC(=O)/C(=C/c3ccc(O)cc3)S2)c(=O)n(-c2ccccc2)n1C` had a z-score of 0.207. `CCCCCn1c(=O)c(F)cn(Cc2ccc(OC)c([N+](=O)[O-])c2)c1=O` displayed a z-score of 0.252.

For the compound `O=C(CNS(=O)(=O)c1ccc(F)cc1)N1CCN(c2ccc(F)cc2)CC1`, the z-score worked out at 0.426. In turn, `CCOc1ccc(Nc2nc(Cc3nnc(SCC(=O)N(CC)CC)n3C)cs2)cc1` displayed a z-score of -0.144. As for `CCOC(=O)/C(C#N)=C\N(C)C`, the z-score was -0.141. As for `COc1ccc(OC)c(CN(CCN2CCOCC2)C(=O)Nc2ccccc2)c1`, the figure is 0.588. Take `CCOC(=O)N1CCN(C(=O)NC23CC4CC(CC(C4)C2)C3)CC1`: the z-score was -0.174.

For the compound `COC(=O)C1CCN(C(=O)Cc2ccc(OC)c(OC)c2)CC1`, the z-score was -0.15.

These data come from PubChem BioAssay AID488969 (Vanderbilt High Throughput Screening Facility, 2010).
